The values that follow come from the antibiotic and cytotoxicity screens of Wong et al. (2023).

This is one part of the list.

The test system of this assay is HSkMC (human skeletal muscle cells). Nature of the assay: cytotoxicity call (relative viability < 0.9). Conditions: 10 µM.
`CCOCC(=O)N1C[C@H]2CNC[C@H]2C1`: the cytotoxicity call was “inactive”. To `CC1OC(OC2C(O)C(O)C(O)C(O)C2O)C(N)CC1NC(=N)C(=O)O.Cl` (stereo not given) belongs “inactive”; to `C[C@H](O)[C@]12[C@@H]3CC=C[C@H]1N2CC3` (stereo not given in full), “inactive”; to `CC(=O)c1c(O)c(C)c(O)c(Cc2c(O)c3c(c(C(=O)/C=C/c4ccccc4)c2O)OC(C)(C)C=C3)c1O`, “inactive”. Turning to `S=C=NCc1ccccc1`, the cytotoxicity call was “inactive”. To `O=C(O)[C@H]1C[C@H]2CCCCN2C1` belongs “inactive”; to `[N-]=[N+]=NCc1ccccc1C[C@]1(C(=O)NCc2ccccc2)N=C(c2ccc(OCCCO)cc2)O[C@H]1c1ccccc1N=[N+]=[N-]`, “inactive”; to `Cc1ccc(C2(CN)CCCCC2)cc1`, “inactive”. For `COC1C(O)C(C)OC(OC2CCC3(C=O)C(CCC4C3CCC3(C)C(C5=CC(=O)OC5)CCC43O)C2)C1O` (stereo not given), the cytotoxicity call was “active”. As for `Cc1[nH]c2ccccc2c1CCN`, the cytotoxicity call was “inactive”. For the compound `CCOc1ccc(CN)cn1`, the cytotoxicity call is “inactive”. Then `CC(=O)O[C@H]1C[C@H](O[C@H]2[C@@H](O)C[C@H](O[C@H]3[C@@H](O)C[C@H](O[C@H]4CC[C@@]5(C)[C@@H](CC[C@H]6[C@@H]5C[C@@H](O)[C@]5(C)[C@@H](C7=CC(=O)OC7)CC[C@]65O)C4)O[C@@H]3C)O[C@@H]2C)O[C@H](C)[C@H]1O[C@@H]1O[C@H](CO)[C@@H](O)[C@H](O)[C@H]1O`, with “active”; and `O=c1n(Cl)c(=O)n(Cl)c(=O)n1Cl`, with “inactive”; and `CCOP(=S)(OCC)Oc1ccc2c(C)c(Cl)c(=O)oc2c1`, with “inactive”.

For `CC(C)[C@@]1(NC(=O)[C@H]2C[C@@H]3c4cccc5[nH]cc(c45)C[C@H]3N(C)C2)O[C@@]2(O)[C@H]3CCCN3C(=O)[C@@H](Cc3ccccc3)N2C1=O`, the cytotoxicity call is “inactive”.
